# Test results reported in PubChem BioAssay AID686978 (National Center for Advancing Translational Sciences (NCATS), 2013).
# Where “and” joins values, the source holds several entries; their conditions need not be identical. Equal values may be shown once. Out of some 420,000 compounds screened, about 64,000 (15%) were called active. The inconclusive results got no clear call from the source; some entries with a clear call stand among them for comparison. Calls follow the shape of the dose curve; as a rule, active = well fitted inhibition curve with a large enough effect; inconclusive = small, poorly fitted or top-dose-only effect; inactive = flat fitted curve, though single readings scatter. Where the call is inconclusive, the potency comes from a doubtful curve fit.
# Assay: qHTS for Inhibitors of human tyrosyl-DNA phosphodiesterase 1 (TDP1): qHTS in cells in absence of CPT; also: nearly all actives have a fitted effect of over 55% in size
# Settings: DT40 Tdp1-/- hTDP1 cells, no CPT, ATP luminescence, 48 h; activity change, negative = growth inhibition: at 46.2 µM (top of the series) unless noted
# Outline: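 Luminescent ATP content (CellTiter-Glo) served as the growth readout. Knockout chicken DT40 cells expressing human TDP1 were exposed to compounds without camptothecin for a minimum 48 hr at 37 °C.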
# % is scaled to controls: 0 for no effect and ±100 for the full control effect; potency is read from the fitted curve at half-maximal effect; tags tell the direction and shape of the fitted curve.
Compound,"activity change, negative = growth inhibition",Potency
COc1cc(Nc2nc(SCC#N)nc3ccccc23)cc(OC)c1OC,inactive: -7.35%,
Cc1cc(NC(=O)c2cccc(S(=O)(=O)Nc3cccc(C(=O)O)c3)c2)no1,inactive: 8.52%,
CC(=O)Oc1cccc(C2=CC(=O)CC(C)(C)C2=O)c1,inactive: -16.5%,
O=C(CSc1ccccc1)Nc1cccc(S(=O)(=O)N2CCOCC2)c1,,"inconclusive: 25.9 µM [inhibitor, single point]"
CN(Cc1ccccc1)C(=O)C1CCC(CNS(=O)(=O)c2cccc3cccnc23)CC1 (configuration not stated),,"inconclusive: 29.1 µM [inhibitor, single point]"
O=C(/C=C/c1cccc([N+](=O)[O-])c1)Nc1ccccc1N1CCOCC1,,"inconclusive: 18.4 µM [inhibitor, single point]"
CCOc1ccc(OCc2ccc(C(=O)Nc3cccnc3)cc2)cc1,,"inconclusive: 29.1 µM [inhibitor, single point]"
O=C(Cc1ccc(Cl)cc1)NCCS(=O)(=O)N1CCN(c2ccccc2)CC1,,"inconclusive: 5.17 µM [inhibitor, full curve]"
CC1(C(=O)NS(=O)(=O)C2CC2)CCN(C(=O)COc2ccc(Cl)cc2Cl)C1 (configuration not stated),inactive: 1.73%,
CCOc1ccccc1NC(=O)NCCN1CCCCC1,inactive: -0.15%,
CCOC(=O)C(C)(C)Oc1cccc2c1S(=O)(=O)c1ccccc1-2,inactive: -14.8%,
O=S(=O)(NCC1CC1)c1cc(Cl)cc(Cl)c1,inactive: 8.08%,
CC(C)C[C@H]1CN(CCCC[C@@H]2CNC(=O)C(=O)N2CCc2ccccc2)C(=O)C(=O)N1CCc1ccc(O)cc1,inactive: -7.29%,
CSc1cccc(NC(=O)C2CCN(S(=O)(=O)c3ccc4[nH]c(=O)ccc4c3)CC2)c1,inactive: -9.46%,
N=c1c(C(=O)NC2CCCC2)cc2c(=O)n3ccccc3nc2n1C1CCCC1,,"inconclusive: 29.1 µM [inhibitor, single point]"
COc1ccc(CCn2c(=O)c3cccnc3n(Cc3ccc([N+](=O)[O-])cc3)c2=O)cc1OC,,active: 16.4 µM
O=C1/C(=C/c2cccnc2)Oc2cc(OS(=O)(=O)c3ccc(F)cc3)ccc21,,"inconclusive: 29.1 µM [inhibitor, single point]"
C[C@H](CO)N1C[C@H](C)[C@@H](CN(C)S(C)(=O)=O)Oc2c(NC(=O)C3CCCCC3)cccc2C1=O,inactive: -5.39%,
CN1CCc2c(sc3c2C(=O)NC(c2ccc(-c4cccc(Cl)c4)o2)N3)C1 (configuration not stated),,"inconclusive: 18.4 µM [inhibitor, single point]"
O=C(Nc1ccncc1)c1ccccc1Cl,inconclusive: -33% [inhibitor],
CC1=C(C(=O)N(C(C)C)C(C)C)CC(CC(=O)NC2CCCC2)C(=O)N1CCC1=CCCCC1 (configuration not stated),,active: 23.1 µM
CCOc1c(Br)cc(C(=O)Nc2cccc(S(=O)(=O)N3CCOCC3)c2)cc1OC,,active: 23.1 µM
CCCC(O)(c1ccc(OC)cc1)C(CN1CCOCC1)c1ccc(Cl)cc1 (configuration not stated),,"inconclusive: 29.1 µM [inhibitor, single point]"
CSc1ccc(Cn2c(C)c(C(=O)NCc3ccc4c(c3)OCO4)sc2=O)cc1,,active: 14.6 µM

Compound,"activity change, negative = growth inhibition",Potency
COc1ccc2oc(=O)c(C(=O)N3CCN(c4ccccc4F)CC3)cc2c1,inactive: -20%,
Cc1sc2ncnc(N3CCC(C(=O)Nc4nc(-c5cccs5)cs4)CC3)c2c1C,,active: 8.2 µM
Cc1cc(NC(=O)CSc2nc(-c3ccc(Cl)cc3)cs2)no1,inactive: -13.8%,
CN(C)c1ccc(C2CNC(c3ccc(Cl)c([N+](=O)[O-])c3)c3[nH]c4ccccc4c32)cc1 (configuration not stated),,active: 18.4 µM
Cc1cnc(NC(=O)CSc2c(Cl)cccc2Cl)s1,,active: 13 µM
CSc1ccc(CN2CCC(CO)(CCOc3ccccc3)CC2)cc1,,"inconclusive: 29.1 µM [inhibitor, single point]"
CCOC(=O)C1(C)C=C(Nc2ccc(C)cc2)C(=O)N1c1ccccc1 (configuration not stated),,"inconclusive: 16.4 µM [inhibitor, partial curve]"
Cc1ccc(C)c(S(=O)(=O)N2CCN(C(=O)Cn3c(=O)cnc4ccccc43)CC2)c1,inactive: -0.782%,
CNC(=S)Nc1ccc(N2CCCC2)c(S(=O)(=O)Nc2ccc(OC)cc2)c1,,"inconclusive: 7.31 µM [inhibitor, partial curve]"
N=C1C(c2nc3ccccc3[nH]2)=C(O)CN1C1CCCCC1,,"inconclusive: 29.1 µM [inhibitor, single point]"
COc1cccc(CNC(=O)c2ccccc2C(=O)NC(C)(C)C(=O)NCc2cccc(OC)c2)c1,inactive: 22.9%,
O=C(c1ccc(Cn2c(=S)[nH]c3ccc(N4CCOCC4)cc3c2=O)cc1)N1CCC(N2CCCCC2)CC1,,"inconclusive: 18.4 µM [inhibitor, single point]"
CCN(CC)CCN(C(=O)c1ccc(C(=O)OC)cc1)c1nc2ccc(Cl)cc2s1,,"inconclusive: 29.1 µM [inhibitor, single point]"
CC1CCCN(S(=O)(=O)c2ccc(NC(=O)CNC3CCCC3)cc2)C1 (configuration not stated),,"inconclusive: 25.9 µM [inhibitor, single point]"
CCCOC(=O)c1ccc(NC(=O)c2ccoc2C)cc1,,"inconclusive: 29.1 µM [inhibitor, single point]"
COCC(C)NC(=O)C1CCN(S(=O)(=O)c2ccc3ccccc3c2)CC1 (configuration not stated),,"inconclusive: 29.1 µM [inhibitor, single point]"
CCCC(CCC)C(=O)Nc1ccncc1,inactive: -26.2%,
CN(Cc1c(O)ccc2c1oc(=O)c1ccccc12)C1CCCCC1,,"inconclusive: 35.5 µM [inhibitor, single point]"
COc1cc(OC)c(C(=O)Nc2ccccc2-c2ccccc2)cc1OC,,"inconclusive: 29.1 µM [inhibitor, single point]"
COc1ccc(CCNC(=O)Cn2c(=O)n(-c3cc(OC)c(OC)c(OC)c3)c(=O)c3ccccc32)cc1OC,inactive: 1.66%,
O=C(CNC(=O)c1ccc(Cl)cc1Cl)OCc1nnc(-c2ccccc2)o1,inactive: -4.63%,
CSc1nc(-c2ccccc2)nc(C(C)C)n1,,"inconclusive: 10.3 µM [inhibitor, partial curve]"
COc1ccc(CNC(=O)C(c2ccco2)N(Cc2cccs2)C(=O)Cc2cccs2)cc1 (configuration not stated),,"inconclusive: 29.1 µM [inhibitor, single point]"
CN(CCN1CCOCC1)C(=O)c1cc(COc2ccc(F)c(F)c2)on1,inactive: -17%,

Compound,"activity change, negative = growth inhibition",Potency
O=C(NCCCCc1ccccc1)NC[C@@H]1CC[C@@H](Cc2ccc(-c3ccccc3)cc2)O1,,active: 14.6 µM
COc1ccc2cc(C(=O)C3CCCN(C(=O)c4sc(C)nc4C)C3)ccc2c1 (configuration not stated),,"inconclusive: 29.1 µM [inhibitor, single point]"
CN1C(C(=O)Nc2ccccn2)=C(O)c2sccc2S1(=O)=O,,"inconclusive: 10.1 µM [inhibitor, single point] and inconclusive: 14.6 µM [inhibitor, partial curve]"
CCN(CC(=O)NCc1cccs1)C(=O)c1cccc(S(=O)(=O)N(C)C)c1,inactive: -14.4%,
CCOc1ccc(NC(=O)c2cc(S(=O)(=O)N3CCCCC3)c[nH]2)cc1,,inactive
COc1ccc(NC(=O)CSc2ccc3nnc(-c4cccnc4)n3n2)cc1OC,inactive: 0.432%,
COc1nnc(-c2ccc(C)c(S(=O)(=O)NC(C)(C)CO)c2)c2ccccc12,,"inconclusive: 16.4 µM [inhibitor, partial curve]"
CCC1CCCCN1C(=O)CSc1nnc(-c2ccc(OC)cc2)o1 (configuration not stated),,active: 20.6 µM
COc1ccc(Nc2nnc(-c3ccc(C(N)=O)cc3)c3ccccc23)cc1,,"inconclusive: 23.1 µM [inhibitor, partial curve]"
COc1cc(OC)cc(C(=O)NNC(=O)c2cc3ccccc3cc2O)c1,,"inconclusive: 14.6 µM [inhibitor, partial curve, poor fit]"
CCn1ccc(C(=O)Nc2ccccc2SC)n1,inactive: -21.3%,
O=C(N/N=C/c1ccc(N2CCOCC2)s1)c1ccccc1Br,inactive: -4%,
CCn1c(=O)c2cc(C(=O)N(C)c3ccc(OC)cc3OC)sc2c2ccccc21,,active: 13 µM
O=C1CN(Cc2nc3cc(Cl)ccc3c(=O)[nH]2)CCN1,,"inconclusive: 23.1 µM [inhibitor, single point]"
CC(C)Oc1ccc(S(=O)(=O)N2CCOCC2)cc1NC(=O)c1ccc(N2CCCC2=O)cc1,inactive: -27.1%,
COc1ccc(/C=C2\SC(=S)N(CCC(=O)Nc3ccc(O)cc3)C2=O)cc1,inactive: -4.27%,
Cc1cc(NC(=O)c2ccccc2)nc2c1c(=O)oc1ccccc12,,"inconclusive: 9.2 µM [inhibitor, partial curve]"
CC(C)C[C@H]1CN(CCCC[C@@H]2CNC(=O)C(=O)N2CCc2ccccc2)C(=O)C(=O)N1Cc1ccccc1,inactive: -9.23%,
COc1ccc(NC(=O)C(=O)NNC(=O)c2cccs2)cc1,,"inconclusive: 6.51 µM [inhibitor, partial curve, poor fit]"
CCOC(=O)[C@]12CCCC=C1N(Cc1ccc3c(c1)OCO3)C(=O)[C@H](CC(=O)NCc1cccs1)C2,,"inconclusive: 23.1 µM [inhibitor, single point]"
O=C(N/N=C/c1ccc(O)cc1O)/C(=C/c1ccccc1)CCO,,"inconclusive: 29.1 µM [inhibitor, single point]"
Cc1ccc(C(C)C)cc1S(=O)(=O)NCc1ccccn1,inconclusive: -30.9% [inhibitor],
Cc1ccc(Nc2nc(-c3sc(C)nc3C)cs2)cc1,,active: 0.58 µM
CCCCc1ccc(NC(=O)C(=O)NCCN2CCN(C(=O)c3ccc([N+](=O)[O-])cc3)CC2)cc1,,"inconclusive: 4.61 µM [inhibitor, full curve]"
